The source of these data is PubChem BioAssay (NCI).

Common to all, as to assay: DTP human tumour cell line panel, 48 h
For assay [1], the system named is HCT-15 colon.
Assay [2] relates to KM12 colon.
In assay [3] the test system is OVCAR-8 ovarian.
Assay [4] deals with NCI/ADR-RES ovarian.
Assay [5] relates to A498 renal.
Assay [6] has as its system NCI-H226 lung.
Assay [7] deals with MALME-3M melanoma.
Assay [8] deals with HCC-2998 colon.
The test system of assay [9] is HCT-116 colon.
The subject of assay [10] is OVCAR-3 ovarian.
The test system of assay [11] is NCI-H460 lung.
Assay [12] has as its system SF-295 CNS.
For assay [13], the system named is KM20L2 colon.

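Exposure lasted 48 hours, with cells grown in 96-well plates and compounds tested at five concentrations. TGI: total growth inhibition.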 Certain results were filed several times, with different values. This is not the full list of results. An entry can have further records. The tests behind the records often covered other concentration ranges, which the source does not state; a value can be the end of its range.

As to `COC(=O)c1cc2c(cc1O)[C@@H](NC(C)=O)CCc1cc(OC)c(OC)c(OC)c1-2`, the TGI in assay [1] was 544 nM and > 100 µM; in [2], 98 nM and > 100 µM; in assay [3] it was 195 nM and > 100 µM; in [4] it was 282 nM and > 100 µM; in assay [5], 8.34 µM and > 100 µM; in assay [6] it was 82.9 nM and > 100 µM. Further, the concentration for total growth inhibition (TGI) is 395 nM and > 100 µM in assay [7]; 400 nM and > 100 µM in [8]; 1.26 µM and > 100 µM in [9].
On to `CCOC(=O)Oc1c(OC)cc(C(=O)NC2CCc3cc(OC)c(OC)c(OC)c3-c3ccc(SC)c(=O)cc32)cc1OC` (centres undefined), for which the TGI was 208 nM and 8.64 µM in assay [2]; 74.3 nM and < 7 nM in [10]; 904 nM and 14.2 µM in [11]; 671 nM and 46 µM in assay [12]; 284 nM and 24.3 nM in [13].

The TGI is the concentration giving total growth inhibition. Read a low TGI as greater sensitivity of the cells.
